Where a name gives a salt, the structure may show the parent alone. The list shows a part of the results. The data scatter; read single values as rough.
System: MKN45
Assay: ALDHbr (CSC) cell proportion score relative to DMSO vehicle (ratio to DMSO); breast (SUM159) / gastric (MKN45) / pancreatic (PANC1) / colon cancer lines; ALDHbr cells have high ALDH activity and are rich in cancer stem cells (CSC); higher = more CSC (ALDHbr) cells remaining
Details: 10 µM; 72 h
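Note: High-content imaging of ALDEFLUOR-stained cells with Hoechst-labelled nuclei in 384-well plates, triplicate wells, scored as Z-score against 0.1% DMSO vehicle, negative meaning fewer ALDHbr cells.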

| Compound | ALDHbr |
| --- | --- |
| N=C(N)NCCN1CCCCCCC1 [Guanethidine sulfate] | 1.14 |
| CC(=O)Nc1nnc(S(N)(=O)=O)s1 [Acetazolamide] | 0.921 |
| CCCc1nc2c(C)cc(-c3nc4ccccc4n3C)cc2n1Cc1ccc(-c2ccccc2C(=O)O)cc1 [Telmisartan] | 0.802 |
| NS(=O)(=O)c1cc2c(cc1Cl)N=C(CSCc1ccccc1)NS2(=O)=O [Benzthiazide] | 0.916 |
| COc1cc(C(=O)N2CCOCC2)cc(OC)c1OC [Trimetozine] | 1.06 |
| O=C1CN2Cc3c(ccc(Cl)c3Cl)N=C2N1 [Anagrelide] | 0.898 |
| CN1CCCN(C(c2ccccc2)c2ccc(Cl)cc2)CC1 (centres undefined) [Homochlorcyclizine dihydrochloride] | 1.11 |
| CC(=O)OCC1=C(C(=O)O)N2C(=O)[C@@H](NC(=O)Cc3cccs3)[C@H]2SC1 [Cephalothin sodium salt] | 1.08 |
| CC[N+](C)(CC)CCC[n+]1c(-c2ccccc2)c2cc(N)ccc2c2ccc(N)cc21 [Propidium iodide] | 1.06 |
| O=C(c1ccc(OCCN2CCCCC2)cc1)c1c(-c2ccc(O)cc2)sc2cc(O)ccc12 [Raloxifene hydrochloride] | 0.419 |
| CO/N=C(\C(=O)N[C@@H]1C(=O)N2C(C(=O)O)=C(COC(C)=O)CS[C@H]12)c1csc(N)n1 [Cefotaxime sodium salt] | 0.995 |
| COc1ccc(NS(=O)(=O)c2ccc(N)cc2)nn1 [Sulfamethoxypyridazine] | 0.869 |
| CCn1cc(C(=O)O)c(=O)c2cc(F)c(N3CCNCC3)nc21 [Enoxacin] | 1.04 |
| CN(C)[C@@H]1C(=O)C(C(N)=O)=C(O)[C@@]2(O)C(=O)C3=C(O)c4c(O)ccc(Cl)c4[C@@H](O)[C@H]3C[C@@H]12 [Demeclocycline hydrochloride] | 0.929 |
| Cc1oncc1C(=O)Nc1ccc(C(F)(F)F)cc1 [Leflunomide] | 0.745 |
| CC(=O)Nc1c(I)c(C(=O)N[C@H]2C(O)O[C@H](CO)[C@@H](O)[C@@H]2O)c(I)c(N(C)C(C)=O)c1I (some centres undefined) [Metrizamide] | 1.11 |
| CCCN1CCCC[C@H]1C(=O)Nc1c(C)cccc1C [Ropivacaine hydrochloride] | 1.01 |
| NC[C@@H]1O[C@H](O[C@H]2[C@@H](O)[C@H](O[C@@H]3[C@@H](O)[C@H](N)C[C@H](N)[C@H]3O[C@H]3O[C@H](CO)[C@@H](O)[C@H](O)[C@H]3N)O[C@@H]2CO)[C@H](N)[C@@H](O)[C@@H]1O [Paromomycin sulfate] | 1.12 |
| CN(C)CCCOc1nn(Cc2ccccc2)c2ccccc12 [Benzydamine hydrochloride] | 0.709 |
| CN(C)/N=N/c1[nH]cnc1C(N)=O [Dacarbazine] | 1.15 |

| Compound | ALDHbr |
| --- | --- |
| CN(N=O)C(=O)N[C@H]1C(O)O[C@H](CO)[C@@H](O)[C@@H]1O (mixture of isomers) [Streptozotocin] | 0.779 |
| COc1cc(-c2ccc(N=Nc3ccc4c(S(=O)(=O)O)cc(S(=O)(=O)O)c(N)c4c3O)c(OC)c2)ccc1N=Nc1ccc2c(S(=O)(=O)O)cc(S(=O)(=O)O)c(N)c2c1O [Chicago sky blue 6B] | 1.02 |
| COc1ccccc1OCC(O)CN1CCN(CC(=O)Nc2c(C)cccc2C)CC1 (centres undefined) [Ranolazine] | 1 |
| Cc1ccc(C(=O)c2ccc(CC(=O)O)n2C)cc1 [Tolmetin sodium salt dihydrate] | 0.922 |
| C#C[C@]1(O)CC[C@H]2[C@@H]3CCC4=CC(=O)CC[C@@H]4[C@H]3CC[C@@]21C [Norethindrone] | 0.584 |
| CC(C)(C)NC[C@H](O)COc1nsnc1N1CCOCC1 [Timolol maleate salt] | 1.05 |
| NS(=O)(=O)c1cc(Cl)c(Cl)c(S(N)(=O)=O)c1 [Dichlorphenamide] | 0.875 |
| CC(Oc1ccccc1)C(=O)N[C@@H]1C(=O)N2[C@@H]1SC(C)(C)[C@@H]2C(=O)O (some centres undefined) [Phenethicillin potassium salt] | 0.965 |
| COC(=O)C1=C(C)NC(C)=C(C(=O)OCCN(C)Cc2ccccc2)C1c1cccc([N+](=O)[O-])c1 (centres undefined) [Nicardipine hydrochloride] | 0.944 |
| CC(C(=O)O)c1ccc2c(c1)Cc1cccnc1O2 (centres undefined) [Pranoprofen] | 1.04 |
| Cn1c(=O)c2nc[nH]c2n(C)c1=O [Theophylline monohydrate] | 0.879 |
| CNCCCC1c2ccccc2C=Cc2ccccc21 [Protriptyline hydrochloride] | 0.903 |
| C[C@]12CCC(=O)C=C1C=C[C@@H]1[C@@H]2CC[C@@]2(C)[C@H]1CC[C@@]21CCC(=O)O1 [Canrenone] | 0.842 |
| NC(CO)C(=O)NNCc1ccc(O)c(O)c1O (centres undefined) [Benserazide hydrochloride] | 0.851 |
| CC(=O)OCC(=O)[C@@]12N=C(C)O[C@@H]1C[C@H]1[C@@H]3CCC4=CC(=O)C=C[C@]4(C)[C@H]3[C@@H](O)C[C@@]12C [Deflazacort] | 0.966 |
| CCCCc1nc(Cl)c(CO)n1Cc1ccc(-c2ccccc2-c2nnn[nH]2)cc1 [Losartan] | 0.987 |
| O=c1[nH]c(=O)n([C@H]2C[C@H](O)[C@@H](CO)O2)cc1I [Idoxuridine] | 1.45 |
| Nc1ccc(O)c(C(=O)O)c1 [Mesalamine] | 1.24 |
| C[C@@H]1[C@H](O)[C@@H](C)/C=C/C=C/C=C/C=C/C=C/C=C/C=C/[C@H](O[C@@H]2O[C@H](C)[C@@H](O)[C@H](N)[C@@H]2O)C[C@@H]2O[C@](O)(C[C@@H](O)C[C@@H](O)[C@H](O)CC[C@@H](O)C[C@@H](O)CC(=O)O[C@H]1C)C[C@H](O)[C@H]2C(=O)O [Amphotericin B] | 0.925 |
